ChEMBL document CHEMBL1201862, “PubChem BioAssay data set” (2004)
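96-well plates; 48 h exposure; 5 concentrations. Endpoints by linear interpolation between flanking doses. Not reached: highest tested concentration assigned. At the GI50, growth is halved.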 Activity calls are given as the source filed them. Rule as the data show it: active = GI50 up to about 1.1 µM and inactive = higher.

What follows are molecules tested on NCI-H322M (assay: NCI tumour cell line growth inhibition, 48 h).

SMILES | GI50
O=C(O)COc1c(Cl)cc(Cl)c2cccnc12 | inactive: > 100 µM
c1ccc2c(c1)ccc1ncccc12 | inactive: > 100 µM
CC(C)(C)NC(=O)C12C3C4C1C1C2C3C41I (stereo unspecified) | inactive: > 100 µM
O=c1[nH]c(C23CC4CC(CC(C4)C2)C3)cc2c1c(=O)oc1ccccc12 | inactive: 4.03 µM
O=C(O)CC[N+]1=CCC(c2ccccc2)(c2ccccc2)O1 | inactive: > 100 µM
Cn1c(N)nc(-c2ccc(Cl)cc2)c1SSc1c(-c2ccc(Cl)cc2)nc(N)n1C | inactive: 19.8 µM
CCOC(=O)C1S/C(=N\c2ccc(Cl)cc2)N=C1C (stereo unspecified) | inactive: 21 µM
CC1CC(=O)Nc2ccc(Cl)cc2N1C(=O)CN1CCC(CCCCN(C)C)CC1 (stereo unspecified) | inactive: > 100 µM
CCOC(=O)CSc1nc2ccccc2c(=O)n1N | inactive: > 100 µM
Cc1cccc2c(=O)c([Se]c3coc4c(C)cccc4c3=O)coc12 | inactive: 4.95 µM
CN(CC(=O)O)c1ncc2c(n1)C=CCC2 | inactive: > 100 µM
COC1(OC)C2(Cl)C(Cl)=C(Cl)C1(Cl)C1C=CC=CC12 (stereo unspecified) | inactive: > 100 µM
COc1cc2c3c(n(C)c(=O)c2cc1OC)-c1cc2c(cc1/C3=C\CCCCCBr)OCO2 | inactive: 20 µM
CNC(=O)Oc1ccc(-c2cn3cc(OC(=O)NC)ccc3n2)cc1 | inactive: 38.7 µM
CNC(=O)OCc1nc(SC)n(C)c1CO | inactive: > 100 µM
CN(C)c1ccc(/C=N/c2ccc(-c3nc4ccccc4o3)cc2)cc1 | inactive: > 100 µM
O=C1Oc2ccccc2N/C1=C/C(=O)c1ccc([N+](=O)[O-])cc1 | inactive: > 100 µM
CN1CCOC(c2ccccc2)O1 (stereo unspecified) | inactive: > 100 µM
C/C(=N\NC(=S)N(C)CCN(C)C(=S)N/N=C(\C)c1ccccn1)c1ccccn1 | active: 0.459 µM
Oc1ccccc1/C=N/Nc1nc(N/N=C/c2ccccc2O)nc(N/N=C/c2ccccc2O)n1 | inactive: > 100 µM
CCOC(=O)C(NC(=O)c1ccco1)(Nc1nc2ccc(OCC)cc2s1)C(F)(F)F (stereo unspecified) | inactive: 72.4 µM
CCCCCC(=O)n1[nH]c(=O)n(-c2ccc(OC)cc2)c1=O | inactive: > 100 µM
COC(=O)CN(CC(=O)NCCCBr)C1CCCCC1N(CC(=O)OC)CC(=O)OC (stereo unspecified) | inactive: > 100 µM

SMILES | GI50
CC(C)(C)OC(=O)CN1CCNCCNCC1 | inactive: > 100 µM
COc1ccc(-c2onc(-c3ccc([N+](=O)[O-])cc3)c2C2=NCCCN2)cc1 | inactive: 80.4 µM
CC(=O)OC1=CC2(OC(C)=O)CC(C)(C)C1C1C(=O)C=CC(=O)C12 (stereo unspecified) | inactive: > 100 µM
COc1ccccc1Cn1c2c(c3c(C(=O)NCCN(C)C)c(O)ccc31)C(=O)c1ccccc1C2=O | inactive: 1.77 µM
COc1ccc2c(CN3CCCCC3CO)cc3cc(OC)c(OC)cc3c2c1 (stereo unspecified) | inactive: 4.7 µM
N#CC1C(=O)NC23CCCCC2C1c1ccccc1O3 (stereo unspecified) | inactive: > 100 µM
O=C1/C(=C/c2cccc(O)c2)COc2ccccc21 | inactive: 16.8 µM
O=c1c2ccccc2nc2n1CCc1c-2[nH]c2ccc(Br)cc12 | inactive: > 100 µM
CCN(CC)C(=O)CCN1CC1 | inactive: > 10 µM
CN(CC(=O)O)c1ncc2c(n1)-c1ccccc1OC2c1ccccc1 (stereo unspecified) | inactive: > 100 µM
Cc1nn(C(=O)Cc2ccccc2)c2c1C(c1ccc(O)cc1O)SC(=N)N2 (stereo unspecified) | inactive: > 100 µM
CCOC(=O)C1N(S(=O)(=O)c2ccc(C)cc2)CCC12c1ccccc1N(C(C)=O)C2c1ccc(OC)c(OC)c1 (stereo unspecified) | inactive: > 100 µM
COc1ccccc1NCc1nnc(CCCCCCCCc2nnc(CNc3ccccc3OC)o2)o1 | inactive: > 100 µM
CCCCCCCCCCCCCCCCCC(=O)NCCCNCCCNC(=O)CCCCCCCCCCCCCCCCC | inactive: > 100 µM
Clc1ccc(C[P+]2(c3ccccc3)CCCCC2)cc1.[O-][Cl+3]([O-])([O-])[O-] | inactive: > 100 µM
Cc1c(C(=O)CC(=O)C(=O)Nc2cc(Cl)ccc2Cl)[n+]([O-])c2ccccc2[n+]1[O-] | inactive: 33.3 µM
CCOC(=O)c1cc(-n2nnc3ccccc32)cn1C | inactive: > 10 µM
COC(=O)c1cc(C)c(C)c2c1NC(=O)CNC2=O | inactive: > 100 µM
O=c1oc(-c2ccccc2)c(-c2ccccc2)n1-c1ccc(Br)cc1 | inactive: 60 µM
Nc1ncnc2c1ccn2C/C=C\CO | inactive: > 100 µM
COc1ccc(C2C3=C(COC3=O)OC(C)(C)Oc3cc4c(cc32)OCO4)cc1OC (stereo unspecified) | inactive: > 66.4 µM
CC(C)[C@@H]1NC(=O)[C@H]2N=C(O[C@@H]2C)[C@@H]2CCCN2C(=O)[C@H](Cc2ccccc2)NC(=O)[C@@H]2CSC(=N2)[C@@H](Cc2ccccc2)NC(=O)[C@@H]2CSC1=N2 | inactive: > 50 µM
CC1=NN(c2ccccc2Cl)C2(C1)SCC(=O)N2c1nc2ccccc2s1 (stereo unspecified) | inactive: > 100 µM

SMILES | GI50
CC12CCC(=O)N1c1cncnc1N2 (stereo unspecified) | inactive: > 10 µM
O=c1c2c(nc3[nH]ccn13)CCC2 | inactive: > 10 µM
CCOC(=O)N1CCc2cc(OC)c(OC)cc2/C1=C/c1ccc(OC)c(OC)c1 | inactive: > 100 µM
C=C1CCN2CC[C@@H](OC(=O)/C(C)=C\C)[C@@H]12 | inactive: > 100 µM
O=C(CSCC(=O)N/N=C\c1ccc(-c2ccccc2)cc1)N/N=C\c1ccc(-c2ccccc2)cc1 | inactive: 22.8 µM
COc1ccccc1NS(=O)(=O)c1cc(C(C)(C)C)ccc1OCCOc1ccc(C(C)(C)C)cc1S(=O)(=O)Nc1ccccc1OC | inactive: > 100 µM
Cc1ccc([N+](=O)[O-])cc1S(=O)(=O)Nc1ccc(C(=O)/C=C/c2ccccc2)cc1 | inactive: 24.8 µM
O=C1Nc2ccc(Br)cc2/C1=N/S(=O)(=O)O | inactive: 75.5 µM
C=C1C(=O)O[C@H]2C(=O)[C@H](C)CCC[C@@](C)(O)/C=C\C[C@@]3(C)O[C@@H]3C[C@@H]12 | inactive: 35.9 µM
COC(=O)c1n[nH]c(C)c1/N=N/N(C)CCC#N | inactive: 22.5 µM
CCNCC(=O)O[C@]1(CC)C(=O)OCc2c1cc1n(c2=O)Cc2cc3ccccc3nc2-1 | active: 0.933 µM
C=C1C(=O)OC2/C=C(\CO)C(OC(C)=O)CC(O)/C(C)=C/C(OC(=O)C(C)CC)C12 (stereo unspecified) | inactive: 72.9 µM
CC(C)(C)C1CCC2c3c([nH]c4ccccc34)C3C(=O)N(c4cccc(Cl)c4)C(=O)C3C2C1 (stereo unspecified) | inactive: 16.4 µM
CC(Br)C(=O)NC(CO)C(=O)O (stereo unspecified) | inactive: > 100 µM
Clc1ccc(C2=NN(c3ccccc3)C3c4cc(Br)ccc4OCC23)cc1 (stereo unspecified) | inactive: 97.5 µM
Cc1ccc(Cl)c2c(=O)cc(-c3ccccc3)[nH]c12 | inactive: 71.3 µM
CCOC(=O)c1c(SC(=O)C(C)(C)Oc2ccc(Cl)cc2)n(-c2ccccc2)c(=S)n(-c2ccccc2)c1=O | inactive: 25.5 µM
C[n+]1cccc2ccc3cccnc3c21 | inactive: 36.1 µM
C/C(=N\NC(=O)N/N=C(\C)c1ccccn1)c1ccccn1 | inactive: 27.4 µM
CCOC(=O)C(NC(=O)Nc1ccc(Cl)cc1)(OC)C(F)(F)F (stereo unspecified) | inactive: 83.6 µM
Cc1ccc(/C=N\NC(=O)c2ccncc2)s1 | inactive: > 100 µM
CN(C)CC(/C(Cc1ccccc1)=N\NC(=O)C[n+]1ccccc1)c1ccccc1 (stereo unspecified) | inactive: > 100 µM
CCCCCCCCCCCCCCCCOP(=O)(O)OCC(N)C(=O)O (stereo unspecified) | inactive: 34.4 µM

SMILES | GI50
C=C1COC(/C=C(\C)CC/C=C(\C)CCl)C1 (stereo unspecified) | inactive: > 100 µM
Cn1c(=O)c2c(nc3n(Cc4ccccc4)c(=O)c(Br)cn23)n(C)c1=O | inactive: > 100 µM
OCC1OC(c2scc3c(=S)[nH]cnc23)C(O)C1O (stereo unspecified) | inactive: 23.2 µM
Cn1nc2ccc([N+](=O)[O-])c(Cn3nnc4ccccc43)c2n1 | inactive: > 100 µM
OC(c1ccc(C(F)(F)F)cc1)C(F)(F)c1nc2ccccc2o1 (stereo unspecified) | inactive: > 100 µM
CCn1c2ccc(C(=O)CCCN3CCCCC3)cc2c2cc(C(=O)CCCN3CCCCC3)ccc21 | inactive: 2.77 µM
O=C(NNc1ccnc2cc(Cl)ccc12)/C(=C\c1ccccc1Cl)NC(=O)c1ccccc1 | inactive: > 100 µM
C=C(C)[C@@H]1CCc2c(c(C)cc(O)c(=O)c2O)C1 | inactive: 3.72 µM
Cn1ccc(C(=O)NCCN(CCNC(=O)c2ccn(C)c(=O)c2O)CCNC(=O)c2cccc(=O)n2O)c(O)c1=O | inactive: > 100 µM
COc1ccc(C(=O)C(CC2C(=O)NC(=O)NC2=O)c2ccc(OC)cc2)cc1 (stereo unspecified) | inactive: > 100 µM
C[Si](C)(C)C(Sc1ccccc1)(Sc1ccccc1)Sc1ccccc1 | inactive: > 100 µM
O=C(NC(=O)c1ccccc1[N+](=O)[O-])Nc1ccc(Oc2ncc(Br)cn2)c(Cl)c1 | active: 0.0357 µM
CN(Cc1cnc2nc(N)nc(N)c2n1)c1ccc(C(=O)NC(CCC(=O)NCCC(P(=O)(O)O)P(=O)(O)O)C(=O)O)cc1 (stereo unspecified) | inactive: > 48.2 µM
COC(=O)[C@]1(c2cc3ccccc3n2S(=O)(=O)c2ccccc2)CC2CN(C(=O)OCc3ccccc3)C1C1OC(C)(C)OC21 (stereo partly specified) | inactive: > 100 µM
O=[N+]([O-])c1cccc(-c2nc(-c3ccccc3)c(-c3ccccc3)[nH]2)c1 | inactive: > 100 µM
CC(=O)O[C@@H]1C2C(=O)OC(=O)C2C2CCC[C@]23O[C@H]13 (stereo partly specified) | inactive: > 100 µM
CC(C)=CC1C[C@H](C2CC=C3C2(C)CCC2[C@@]3(C)C(=O)CC3[C@]2(C)C=CC(=O)[C@]3(C)CO)CO1 (stereo partly specified) | inactive: 24.2 µM
C#C[C@H]1CCCCCC1O (stereo partly specified) | inactive: > 100 µM
COc1cc(C2c3cc4c(cc3[C@@H](NCCN(C)C)C3COC(=O)[C@H]23)OCO4)cc(OC)c1O (stereo partly specified) | inactive: 1.81 µM
CCOC(=O)N1CCC(N[C@@H]2c3cc4c(cc3[C@@H](c3cc(OC)c(O)c(OC)c3)[C@H]3C(=O)OC[C@@H]32)OCO4)CC1 | inactive: 12.6 µM
CC1=C[C@]2(CC(C)C3C(CC4(C)C5CCC6C(C)(C)C(=O)CC[C@@]67C[C@@]57CC[C@]34C)O2)OC1=O (stereo partly specified) | inactive: 54.5 µM
Oc1[nH]c(Nc2cc(Cl)cc(Cl)c2)nc2ncnc1-2 | inactive: > 75 µM
